Data taken from article PMC10730909.
Results are given in words; binding and its absence hold for the method and conditions named. For part of these data: In cells and extracts the contact can be indirect. Some binding calls cover weakened binding; strength is not graded here.

Chains of the proteins cited; added tags and fusions are not shown.
UniProt Q96EP0: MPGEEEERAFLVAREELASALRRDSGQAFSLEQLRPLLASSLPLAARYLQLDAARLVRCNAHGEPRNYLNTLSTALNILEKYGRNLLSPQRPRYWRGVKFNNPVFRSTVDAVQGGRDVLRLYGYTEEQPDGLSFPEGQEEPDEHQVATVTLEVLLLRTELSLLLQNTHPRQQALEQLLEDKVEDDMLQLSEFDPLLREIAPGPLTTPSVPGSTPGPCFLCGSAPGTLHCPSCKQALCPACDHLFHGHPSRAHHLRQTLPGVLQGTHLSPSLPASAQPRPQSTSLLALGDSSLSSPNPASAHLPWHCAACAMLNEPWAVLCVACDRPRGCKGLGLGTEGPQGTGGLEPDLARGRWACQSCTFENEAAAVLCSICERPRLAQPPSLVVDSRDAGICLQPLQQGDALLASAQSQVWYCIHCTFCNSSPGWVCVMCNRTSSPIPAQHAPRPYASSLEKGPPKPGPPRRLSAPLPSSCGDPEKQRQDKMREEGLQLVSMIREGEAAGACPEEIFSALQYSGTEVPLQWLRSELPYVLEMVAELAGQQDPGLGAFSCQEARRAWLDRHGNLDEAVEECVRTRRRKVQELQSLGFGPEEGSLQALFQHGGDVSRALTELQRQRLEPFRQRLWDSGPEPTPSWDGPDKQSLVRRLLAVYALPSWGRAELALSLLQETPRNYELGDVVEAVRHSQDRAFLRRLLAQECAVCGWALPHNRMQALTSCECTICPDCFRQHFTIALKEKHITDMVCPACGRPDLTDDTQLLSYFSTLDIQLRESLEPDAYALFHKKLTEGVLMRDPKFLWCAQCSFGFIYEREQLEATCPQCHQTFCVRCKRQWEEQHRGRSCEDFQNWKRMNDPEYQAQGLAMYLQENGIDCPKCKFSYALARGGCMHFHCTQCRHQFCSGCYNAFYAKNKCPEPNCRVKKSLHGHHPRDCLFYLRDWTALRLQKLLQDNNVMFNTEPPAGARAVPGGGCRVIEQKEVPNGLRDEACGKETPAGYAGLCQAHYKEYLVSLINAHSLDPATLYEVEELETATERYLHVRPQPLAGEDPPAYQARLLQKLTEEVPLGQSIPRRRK

Assays:
[1] = molecular target: HA-tagged Q330X NEMO (human) (UniProt Q9Y6K9); experiment: co-IP; HEK293T cells transfected with HA-NEMO, lysed in 1% Triton X-100 in PBS; anti-HA beads, blot for the endogenous partner (HOIP, p62); anti-c-myc beads or FLAG-NEMO as control for unspecific binding
[2] = molecular target: HA-tagged wildtype NEMO (human) (UniProt Q9Y6K9); experiment: as above
[3] = molecular target: recombinant MBP-NEMO Q330X (human) (UniProt Q9Y6K9); experiment: pull-down; 2.5 µM recombinant MBP-NEMO and 2 µM recombinant mCherry-p62 without linear tetra-ubiquitin, 25 µL MBP affinity agarose beads, 4 h at 4 °C; 50 mM HEPES pH 7.4, 150 mM NaCl, 1% Triton X-100, 10% glycerol; blot for p62; both purified
[4] = molecular target: recombinant MBP-NEMO WT (human) (UniProt Q9Y6K9); experiment: as above
[5] = molecular target: recombinant MBP-NEMO Q330X (human) (UniProt Q9Y6K9); experiment: condition: 2 µM mCherry-p62, 2.5 µM MBP-NEMO Q330X, 1 µM 4×M1-ub; pull-down; 2.5 µM recombinant MBP-NEMO and 2 µM recombinant mCherry-p62 with 1 µM recombinant linear tetra-ubiquitin (4×M1-ub), 25 µL MBP affinity agarose beads, 4 h at 4 °C; 50 mM HEPES pH 7.4, 150 mM NaCl, 1% Triton X-100, 10% glycerol; blot for p62; both purified

| Substance | binding [1] | binding [2] | binding [3] | binding [4] | binding [5] |
| --- | --- | --- | --- | --- | --- |
| endogenous HOIP (from UniProt Q96EP0 1-1072) (enzyme) | no binding | binds | – | – | – |
| recombinant 6xHis-mCherry-p62 (from UniProt Q13501 1-440) | – | – | no binding (tested: 2 µM mCherry-p62, 2.5 µM MBP-NEMO Q330X) | binds weakly | no binding |
| endogenous p62 (from UniProt Q13501 1-440) | no binding | – | – | – | – |
